According to patent US20220267409A1 (KAHR MEDICAL, published 2022):

Molecular target: T1, human PDL1 expressed on DLD1-PDL1 cells (human, UniProt Q9NZQ7)
T1 construct: whole, on cells; also called CD274; DLD1 PDL1 overexpressing cell line
Assay: flow cytometry on DLD1-PDL1 cells against DLD1 WT cells, dilutions of supernatant, detection with anti-4-1BBL antibody
Protocol: The binding of the PD1 domain of heterodimers comprising a PD1 domain and a 4-1BBL domain (e.g. PD1-4-3xsc1BBL, SIRPα-PD1-3xsc4-1BBL heterodimers) to human PDL1 is determined using DLD1-PDL1 cell line overexpressing PDL1. DLD1-WT cells serve as a control as it expresses low levels of endogenous PDL1 (FIG. 8A). Cells are incubated with different dilutions of supernatant containing the heterodimers, followed by immuno-staining with a conjugated anti 4-1BBL antibody. Binding is analyzed by flow cytometry.
Methods—Cells were incubated with serial dilutions of the produced heterodimers-containing supernatants for 20 minutes at 4° C., followed by immuno-staining with conjugated antibody against 4-1BBL and analyzed by flow cytometry. In some cases, cells underwent pre-incubation with anti CD47 blocker antibody prior to the incubation with the supernatants.

T1 sequence (Q9NZQ7 19-290): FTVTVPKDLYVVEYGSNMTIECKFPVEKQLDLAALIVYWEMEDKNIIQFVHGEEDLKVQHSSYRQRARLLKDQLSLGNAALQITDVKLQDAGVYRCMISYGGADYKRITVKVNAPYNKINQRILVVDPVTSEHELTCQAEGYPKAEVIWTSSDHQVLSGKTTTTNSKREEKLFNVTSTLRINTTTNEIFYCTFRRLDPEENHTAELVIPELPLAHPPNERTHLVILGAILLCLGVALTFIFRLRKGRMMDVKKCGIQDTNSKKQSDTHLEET

binding result: binds
B1: SIGLEC10-Fc-PD1-3xsc-4-1BBL heterodimer TSP401 (SEQ ID NOs: 150 and 79) (Fc fusion)
chain 1: DGRFWIRVQESVMVPEGLSISVPCSFSYPRQDWTGSTPAYGYWFKAVTETTKGAPVATNHQSREVEMSTRGRFQLTGDPAKGNCSLVIRDAQMQDESQYFFRVERGSYVRYNFMNDGFFLKVTALTQKGGGGSGGGGS[human IgG4 Fc with S228P L235E Y349C T366W (EU numbers) omitted here]
chain 2: DSPDRPWNPPTFSPALLVVTEGDNATFTCSFSNTSESFVLNWYRMSPSNQTDKLAAFPEDRSQPGQDSRFRVTQLPNGRDFHMSVVRARRNDSGTYLCGAISLAPKAQIKESLRAELRVTERRAEVPTAHPSPSPRPAGQGGGGSGGGGSESKYGPPCPPCPAPEFEGGPSVFLFPPKPKDTLMISRTPEVTCVVVDVSQEDPEVQFNWYVDGVEVHNAKTKPREEQFNSTYRVVSVLTVLHQDWLNGKEYKCKVSNKGLPSSIEKTISKAKGQPREPQVYTLPPSQCEMTKNQVSLSCAVKGFYPSDIAVEWESNGQPENNYKTTPPVLDSDGSFFLVSRLTVDKSRWQEGNVFSCSVMHEALHNHYTQKSLSLSLGKGGGGSGGGGSAASPRLREGPELSPDDPAGLLDLRQGMFAQLVAQNVLLIDGPLSWYSDPGLAGVSLTGGLSYKEDTKELVVAKAGVYYVFFQLELRRVVAGEGSGSVSLALHLQPLRSAAGAAALALTVDLPPASSEARNSAFGFQGRLLHLSAGQRLGVHLHTEARARHAWQLTQGATVLGLFRVTPEIPAGLPSPRSEGGGGSGGGGSGGGGSAASPRLREGPELSPDDPAGLLDLRQGMFAQLVAQNVLLIDGPLSWYSDPGLAGVSLTGGLSYKEDTKELVVAKAGVYYVFFQLELRRVVAGEGSGSVSLALHLQPLRSAAGAAALALTVDLPPASSEARNSAFGFQGRLLHLSAGQRLGVHLHTEARARHAWQLTQGATVLGLFRVTPEIPAGLPSPRSEGGGGSGGGGSGGGGSAASPRLREGPELSPDDPAGLLDLRQGMFAQLVAQNVLLIDGPLSWYSDPGLAGVSLTGGLSYKEDTKELVVAKAGVYYVFFQLELRRVVAGEGSGSVSLALHLQPLRSAAGAAALALTVDLPPASSEARNSAFGFQGRLLHLSAGQRLGVHLHTEARARHAWQLTQGATVLGLFRVTPEIPAGLPSPRSE
notes: Knob-into-hole hIgG4 Fc heterodimer made in Expi293F cells; tested as culture supernatant; also called SIGLEC10-PD1-sc3x4-1BBL heterodimer
